{"source": "PubChem BioAssay AID463254", "about": "(National Center for Advancing Translational Sciences (NCATS), 2010)", "note": "Values joined by “and” are separate entries in the source; they are usually repeats but may differ in a detail not shown here. Equal values may be shown once. Screen size: about 330,000 compounds; about 40 (0.01%) were called active. Calls come from the whole dose curve; as a rule, active = well fitted inhibition curve with a large enough effect; inconclusive = small, poorly fitted or top-dose-only effect, or effect the other way; inactive = flat fitted curve, though single readings scatter. The list shows a part of the results, in another mix than the full data.", "data": [{"biological_target": "Ubiquitin carboxyl-terminal hydrolase 2 (Homo sapiens) (UniProt O75604)", "sequence (O75604 whole entry, looked up)": "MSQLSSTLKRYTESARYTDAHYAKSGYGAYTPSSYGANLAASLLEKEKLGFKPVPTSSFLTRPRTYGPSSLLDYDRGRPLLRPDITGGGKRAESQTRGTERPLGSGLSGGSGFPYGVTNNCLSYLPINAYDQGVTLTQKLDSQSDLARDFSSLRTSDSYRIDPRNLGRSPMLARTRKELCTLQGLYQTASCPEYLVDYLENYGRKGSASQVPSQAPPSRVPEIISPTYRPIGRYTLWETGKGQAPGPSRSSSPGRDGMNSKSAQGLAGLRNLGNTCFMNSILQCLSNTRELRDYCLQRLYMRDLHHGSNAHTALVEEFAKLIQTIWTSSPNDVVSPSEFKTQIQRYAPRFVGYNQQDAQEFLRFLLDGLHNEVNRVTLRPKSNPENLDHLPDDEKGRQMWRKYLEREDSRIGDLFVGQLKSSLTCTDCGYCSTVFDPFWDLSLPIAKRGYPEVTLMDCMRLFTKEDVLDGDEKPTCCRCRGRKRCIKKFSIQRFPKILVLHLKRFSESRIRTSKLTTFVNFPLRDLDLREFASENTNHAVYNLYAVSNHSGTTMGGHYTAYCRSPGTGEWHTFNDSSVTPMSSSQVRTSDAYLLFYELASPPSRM", "assay": "qHTS Assay for Inhibitors of Ubiquitin-specific Protease USP2a Using CHOP2 as the Reporter", "details": "USP2 core, Ub-CHOP2 coupled fluorogenic reporter, 485/531; at 38.3 µM (top of the series)", "source_text": "NIH Molecular Libraries Screening Centers Network [MLSCN] NIH Chemical Genomics Center [NCGC] MLSCN Grant: XO1-MH079852-01 PI Name: Nicholson, Ben. Progenra Inc, Malvern, PA NCGC Assay Overview: Homeostasis of cellular proteins is maintained through a combination of synthesis and degradation. The pathway that accounts for the majority of protein degradation is the ubiquitin-proteasomal pathway. Ubiquitin (Ub) is highly conserved in all cells and the generation of a multi-Ub chain typically targets proteins for degradation by the proteasome. However, ubiquitination is highly reversible and dynamic. Deubiquitination, the reverse process, is catalyzed through the action of enzymes referred to as isopeptidases or deubiquitinating enzymes (DUBs). This group of enzymes is collectively responsible for maintaining adequate pools of free ubiquitin and regulating the ubiquitination status of cellular proteins. The class of DUBs referred to as the ubiquitin-specific proteases (USP) family functions endoproteolytically to cleave Ub chains from a wide range of protein substrates. USP2a deubiquitinates fatty acid synthase (FASN) which has recently been identified as an emerging oncology target. To identify inhibitors of USP2a a cell-free assay was employed. […] The reporter enzyme chosen is an enterokinase called CHOP2, which is activated when the Ub is cleaved by USP2. The free and now activated reporter can subsequently act on its reporter substrate. Thus, this coupled assay gives a fluorescent read-out at excitation/emission wavelengths of 485/531. The assay was developed by Progenra, Inc. and has been licensed for sale by LifeSensors, Inc. as Ub-CHOP2-Reporter-Kit (#PR1101).\nNCGC Assay Protocol Summary: The assay buffer, prepared fresh at the day of the assay, contains 20mM Tris-HCl pH 8.0, 2mM CaCl2, 2mM beta-Mercaptoethanol, 0.05% CHAPS. 3ul of 20nM (10nM final) USP2 core, which is stored on ice, is dispensed into a medium-binding black solid Kalypsys 1,536 well plate using the Kalypsys dispenser. The assay plate is then pinned with 23nL compound with the Kalypsys pintool in columns 5-48. The controls are pinned as follows: column 1 two-fold dilutions of 2M NEM in duplicate; column 2 2M NEM (final concentration 38.2mM); column 3&4 DMSO. The assay plate is incubated at RT for 30min. Subsequently, 1.5uL of 100nM (25nM final) Ub-CHOP2 and 1.5uL of 100nM (25nM final) Reporter Substrate (both stored on ice and protected from light) were dispensed into the plate using the Kalypsys dispenser. Plates were read after 60min RT incubation on a ViewLux (Perkin Elmer) plate reader using the following wavelengths Ex 485nm /Em 531nm. Data were normalized to the to AC100 inhibition (NEM). Concentration-response curves were fitted to the normalized data and the concentration-response curves were then classified based on curve quality (r2), response magnitude and degree of measured activity. The time zero reading was used to flag fluorescence artifacts. Keywords: ubiquitination, deubiquitination, proteases, profluorescent, MLSMR, MLPCN, NIH Roadmap, qHTS, NCGC", "values": [{"smiles": "CN(C)[C@@H]1C(=O)C(C(N)=O)=C(O)[C@@]2(O)C(=O)C3=C(O)c4c(O)cccc4[C@@](C)(O)[C@H]3[C@H](O)[C@@H]12", "activity change, negative = inhibition": "inactive: 17% and inactive: 4.09%"}, {"smiles": "CN(C)[C@@H]1C(=O)C(C(N)=O)=C(O)[C@@]2(O)C(=O)C3=C(O)c4c(O)cccc4[C@@](C)(O)C3[C@H](O)C12", "note": "(stereo partly specified)", "activity change, negative = inhibition": "inactive: 1.62%"}, {"smiles": "CC[C@@H](CO)NC(=O)[C@@H]1C=C2c3cccc4c3c(cn4C)C[C@H]2N(C)C1", "activity change, negative = inhibition": "inactive: 9.74% and inactive: 15.6%"}, {"smiles": "Cc1ccc(-c2cc(-c3ccc(C)cc3)[n+](-c3ccc(C(=O)O)cc3)c(-c3ccc(C)cc3)c2)cc1", "activity change, negative = inhibition": "inactive: 0.0167%"}, {"smiles": "CC(C)n1c(/C=C/[C@@H](O)C[C@@H](O)CC(=O)O)c(-c2ccc(F)cc2)c2ccccc21", "activity change, negative = inhibition": "inactive: 1.01%"}, {"smiles": "CN(C)C1C(=O)C(C(N)=O)=C(O)C2(O)C(=O)C3=C(O)c4c(O)cccc4C(C)(O)C3C(O)C12", "note": "(stereo unspecified)", "activity change, negative = inhibition": "inactive: -3.94%"}]}]}
